Whole data set: some 33,000 sequences, median “E-score (-0.5 to 0.5)” near -0.041, cut for the highest 2% near 0.37. Some of the results follow.
These sequences were tested against T1, Ecm22 (UniProt Q05958) (assay: PBM E-score (8-mer binding enrichment) (E-score (-0.5 to 0.5)); higher = stronger / more preferred TF binding; most listed sequences are background and not binding sites). Settings: protein concentration: 200 nM; construct: GST-full length.
T1 sequence: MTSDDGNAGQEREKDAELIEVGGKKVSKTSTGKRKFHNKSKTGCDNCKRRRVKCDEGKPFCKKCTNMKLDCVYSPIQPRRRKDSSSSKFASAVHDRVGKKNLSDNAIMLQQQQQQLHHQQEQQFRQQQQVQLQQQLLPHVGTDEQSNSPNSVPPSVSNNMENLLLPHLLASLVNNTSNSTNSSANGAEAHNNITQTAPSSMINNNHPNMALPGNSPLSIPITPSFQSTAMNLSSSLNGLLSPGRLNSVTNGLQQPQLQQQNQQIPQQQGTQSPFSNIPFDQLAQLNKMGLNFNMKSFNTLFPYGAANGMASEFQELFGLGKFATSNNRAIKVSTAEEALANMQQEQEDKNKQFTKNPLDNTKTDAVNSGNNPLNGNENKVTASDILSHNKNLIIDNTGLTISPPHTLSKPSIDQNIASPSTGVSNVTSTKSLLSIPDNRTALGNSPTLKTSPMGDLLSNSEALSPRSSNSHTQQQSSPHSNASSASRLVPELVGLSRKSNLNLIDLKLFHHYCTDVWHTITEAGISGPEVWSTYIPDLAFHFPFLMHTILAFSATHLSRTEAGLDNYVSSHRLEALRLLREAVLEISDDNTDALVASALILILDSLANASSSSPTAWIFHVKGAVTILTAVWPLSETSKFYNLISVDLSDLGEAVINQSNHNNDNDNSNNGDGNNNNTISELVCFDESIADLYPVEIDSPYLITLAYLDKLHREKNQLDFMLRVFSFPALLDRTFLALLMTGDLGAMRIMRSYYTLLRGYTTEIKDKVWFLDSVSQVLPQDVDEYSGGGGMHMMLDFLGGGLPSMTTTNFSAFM
In short: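 E-scores (a modified Wilcoxon-Mann-Whitney statistic) were assigned by the Universal PBM Analysis Suite to every ungapped eight-base word pooled with its reverse complement. The input came from universal all-10-mer Agilent arrays made double-stranded by primer extension and probed with GST-tagged yeast transcription factors at about 100-200 nM. Fluorescent anti-GST detected bound protein, and masliner normalised the scans.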

Sequence	PBM E-score
TAGACATA	-0.0762
CGCACAAA	0.113
ATTCGGAA	0.197
ACGAACCT	0.173
CTAGTATA	0.0068
ATCCAGCG	0.0378
AGGGTACT	-0.0977
CAAGTGGC	-0.238
TCTCAAAA	-0.0688
GCCAAGAA	-0.104
ATTCGGGG	-0.138
ATAAGCTG	-0.169
CACCTGAC	-0.17
CGCGCTTC	0.0127
CGGCTCCC	-0.0756
GGAGTAAA	0.0078
ATCGCGCC	0.15
AACAGCTT	-0.122
GGTTAGGA	-0.0779
AACCATAT	0.144
CGGAGCGA	0.346
TAAGCCCA	-0.111
AACGTCCC	-0.284
CGATCGCC	0.185
CCAGCTAC	-0.122

Sequence	PBM E-score
AAAGGAGC	-0.131
CACGCTAC	0.112
GAAGTACA	-0.108
ACTGGTGG	-0.206
GGGTCGGA	0.135
GAACCTCA	-0.216
CGAGTGTC	0.124
GTGGACAA	-0.135
CTATTACA	0.113
AAGGGTCC	-0.227
CAGCTTTA	-0.154
AGCGCCTA	-0.0437
CGGGTGTC	-0.0171
ACTAGCCA	-0.064
AAGACTCC	-0.299
ATAGCCTC	0.0159
AAACTTGG	-0.0276
TGTCAACA	0.019
GGGTTTCA	-0.196
GCCGGATA	0.0975
CGCGCTAC	0.15
GGTCCCGA	0.208
ATGTAACC	0.0107
CAGACAAC	-0.103
CTCTTTCC	-0.016

Sequence	PBM E-score
ACACGGAG	-0.00366
CCTACTGA	-0.185
ACTCGGTG	0.0872
TCACGGGA	-0.0668
AGATACAT	-0.147
TGACAAAA	-0.0699
TGCGCCCA	-0.0625
ACCCCTCA	-0.149
GGAAAGTA	-0.0547
AACTGTGA	0.011
CCCGTCAG	-0.334
GAACCTGA	-0.198
CAGCTTAA	-0.0431
ACCTTCGA	-0.0609
GGACAACA	0.0215
ACACGACT	0.117
CATCGCAA	-0.0617
CATGACAG	-0.0857
ATACATAG	-0.0517
AACTTCAA	-0.0703
CTACGCGA	0.256
ATAAAACC	-0.00182
GTGAAATA	0.131
ATAAGAGA	0.133
GGACACCC	-0.236

Sequence	PBM E-score
GCAAGCGC	0.0244
ACGAAAGT	0.325
AAATGAGT	-0.00288
AACCAATC	0.11
TGGACCCA	-0.131
AAGCGAGC	0.337
CCACGCAG	0.0477
GCGAACCA	0.146
ATGAAAGG	-0.114
TACCTTGA	0.0203
AATTATAA	-0.0438
AAAGATGC	0.0787
ATACCGAT	0.057
TAAGAAGA	0.0914
ACCATACT	0.0825
CGACTCCC	0.0301
CTAATAGC	-0.104
AGTATGGG	-0.206
AAATAGGC	-0.173
ATGTCAAG	-0.234
TAAATGGA	-0.192
GAAGACCC	-0.252
CCCAAATA	-0.214
GAGGCGCA	-0.0982
GTATAAAC	0.403

Sequence	PBM E-score
AAGTGCGC	-0.0198
GGAGCCTA	-0.169
CATAAGAA	0.104
CGAGCTAC	0.201
TACGGTCA	0.317
AGGTTGCG	-0.162
ACCGTTGC	0.175
TCGCGGCA	0.0614
CCTACGGC	-0.147
CACGACTG	0.0526
ATGCGATC	0.188
GGAGGTCA	-0.323
AGGACCAT	0.00977
CATTAATC	0.119
AAACATAC	0.16
AGTCCTAC	-0.0533
GATCATAA	0.0783
ATGGCTCC	-0.205
CCCGGTCG	0.194
CAGCAACG	0.302
GGACGACC	-0.107
AGCTGAGA	-0.276
AGCTAGAA	-0.227
AAACGTTC	0.177
AAATTGCC	0.154

Sequence	PBM E-score
GAGGCTCC	-0.0369
TAAAGTTA	-0.0147
CCGCGACC	-0.139
ATAGTTTG	0.0538
AAGTTCCA	-0.17
CAAGGGCC	-0.256
AGCCACGC	-0.14
TCCCCCCA	-0.444
CAAATGAA	0.138
ATGCGAGG	0.346
GCGGTTTA	0.0249
ATGCGATA	0.217
AATCCTAG	-0.0928
GCCTTGAA	-0.231
CCCGCAGA	-0.175
TCTACACA	-0.0142
AAAACCCC	-0.171
ATAAAGAA	-0.0539
AATACCAT	0.0007
GGAAGACA	-0.104
TAGTCATA	0.0121
CATGTAAA	-0.104
ACTATTAG	0.0209
ACTCCGAA	0.0114
AAAAGGTA	0.0779

Sequence	PBM E-score
GATAAAAC	0.242
TACCCGGA	0.116
CCGAGTCA	0.0691
AGTCAGCC	-0.218
CCAATGGC	-0.263
CACCAAAA	-0.146
AGGAGTGG	-0.149
CACTAGGC	-0.208
TCTGGTCA	-0.171
ATTCAAGC	0.145
AACACTGC	-0.0216
ACTACGGA	-0.0622
ATCGGTAG	-0.0709
ACCAGGGC	-0.271
TAAGGGCA	-0.22
CAATCATA	0.0534
CGCTTGTC	0.0493
GAGACCGC	-0.205
GTGCTGTA	0.00032
CATGAATC	-0.0619
AATCGTAA	0.333
CCAGCATC	-0.203
CTACCCCA	-0.222
CTGATCTA	-0.0881
ACCGCTCT	-0.193

Sequence	PBM E-score
AGCAGCGG	0.0325
AGTTCTGC	0.17
AAACCTCC	-0.148
ACTAATAA	-0.0191
CGCGTACG	0.366
CGATCTAG	0.00932
ATGGGCTC	-0.156
ACTCCGAT	-0.298
AGACCTTG	-0.252
CGTGAGTC	0.0982
CGCCCATC	-0.133
GCTACGGA	0.232
CAACACGC	-0.115
AGACTTCG	0.0857
ACGCCTAA	-0.0254
ACCCCCAA	-0.227
AAAGCGCG	-0.0557
GCAATATA	0.101
TGTTTCAA	-0.0668
ATTTCCGA	0.185
CTAGACCC	-0.193
AAGTCTGC	-0.241
AAACAGCA	-0.0103
AACAAAGA	0.0412
CTGGAGTA	-0.031

Sequence	PBM E-score
CTGTGCGA	0.229
CAGGCTGG	-0.00892
CTAATCCC	-0.075
AAGCACAC	-0.0652
ATCCCGGC	0.135
CTATCGGA	0.0301
ATGATGGA	-0.228
ATCGATCG	0.194
AATAGCTC	-0.187
CGACACGC	0.181
GCCCCTCA	-0.0606
GGTCATAC	0.0858
AACGTGAA	-0.0236
CTTATGGA	-0.122
ATCAGCGA	0.0199
CTTACTGC	-0.119
CATACCCC	-0.0887
ACCGCGAA	0.0992
GCGACGTA	0.265
